Among the data in article PMC10313165 are stoichiometry N values, retold here.

Values joined by “and” are separate entries in the source; they are usually repeats but may differ in a detail not shown here. Equal entries are not always repeated.

For this assay, the target named is rat CaMKIIα holoenzyme (wild type, not phosphorylated) (rat (Rattus norvegicus)) (UniProt P11275). Briefly: high-speed atomic force microscopy; single holoenzyme particles on mica modified with cationic pillar[5]arene; buffer A (50 mM tris-HCl pH 7.4, 15 mM KCl, 10 mM MgCl2, 10% glycerol) with the additives of each state; 24-26 °C; kinase domains seen around a central hub assembly.

What is called stoichiometry N is a count of units in the complex or per binding partner. In the case of “rat CaMKIIα holoenzyme (wild type, not phosphorylated) (a stretch of the chain, sequence left out) (enzyme; other documents disagree on this pair)”, the stoichiometry N was 12 and 14.
